From a collection of fitness landscapes (doi:10.1126/science.1257360)
This is one part of the list.

B1: PhoQ; a variant is named by its letters at X, in order, P23837 (parent)
chain: MKKLLRLFFPLSLRVRFLLATAAVVLVLSLAYGMVALIGYSVSFDKTTFRLLRGESNLFYTLAKWENNKLHVELPENIDKQSPTMTLIYDENGQLLWAQRDVPWLMKMIQPDWLKSNGFHEIEADVNDTSLLLSGDHSIQQQLQEVREDDDDAEMTHSVAVNVYPATSRMPKLTIVVVDTIPVELKSSYMVWSWFIYVLSANLLLVIPLLWVAAWWSLRPIEALAKEVRELEEHNRELLNPATTRELTSLVRNLNRLLKSERERYDKYRTTLTDLTHSLKTPLXXLQXXLRSLRSEKMSVSDAEPVMLEQISRISQQIGYYLHRASMRGGTLLSRELHPVAPLLDNLTSALNKVYQRKGVNISLDISPEISFVGEQNDFVEVMGNVLDNACKYCLEFVEISARQTDEHLYIVVEDDGPGIPLSKREVIFDRGQRVDTLRPGQGVGLAVAREITEQYEGKIVAGESMLGGARMEVIFGRQHSAPKDE

Variants of: B1
Assay: enrichment ratio after two sorts for PhoP signalling (ratio (wild type AVST 3.29)); higher = more functional
Conditions: with PhoP (E. coli)

Row | Variant | enrichment ratio
1 | SSAA | 10.8
2 | KSGA | ≤ 0.25
3 | YAVL | ≤ 0.25
4 | HQPP | ≤ 0.25
5 | TNLE | 0.806
6 | GTVS | ≤ 0.25
7 | FAAT | ≤ 0.25
8 | HYMV | 0.57
9 | YIYY | ≤ 0.25
10 | SDHK | ≤ 0.25
11 | HCPW | ≤ 0.25
12 | PPIF | ≤ 0.25
13 | YICS | 0.338
14 | NPIP | ≤ 0.25
15 | GAAN | ≤ 0.25
16 | LSEH | ≤ 0.25
17 | NFDW | ≤ 0.25
18 | KRKW | ≤ 0.25
19 | KNMC | ≤ 0.25
20 | LANS | ≤ 0.25
21 | VMWS | ≤ 0.25
22 | ANFW | ≤ 0.25
23 | GEYV | ≤ 0.25
24 | QNSD | ≤ 0.25

Row | Variant | enrichment ratio
25 | APWM | ≤ 0.25
26 | WALP | ≤ 0.25
27 | GDQM | ≤ 0.25
28 | FQTE | ≤ 0.25
29 | TRYG | ≤ 0.25
30 | IDTR | ≤ 0.25
31 | GYHT | ≤ 0.25
32 | INFQ | ≤ 0.25
33 | EGGR | ≤ 0.25
34 | LMMD | ≤ 0.25
35 | FPTD | ≤ 0.25
36 | YCKG | ≤ 0.25
37 | WNHL | ≤ 0.25
38 | QQVS | ≤ 0.25
39 | AQHQ | 7.51
40 | HKAE | ≤ 0.25
41 | NLIY | ≤ 0.25
42 | PRRV | ≤ 0.25
43 | RSVA | ≤ 0.25
44 | FETF | ≤ 0.25
45 | ASIL | 19.5
46 | VTYY | ≤ 0.25
47 | NTPN | ≤ 0.25
48 | TNTK | ≤ 0.25

Row | Variant | enrichment ratio
49 | MYVI | ≤ 0.25
50 | KFAI | ≤ 0.25
51 | ANRP | ≤ 0.25
52 | FNRD | ≤ 0.25
53 | RLVC | ≤ 0.25
54 | FQSA | ≤ 0.25
55 | YGSF | ≤ 0.25
56 | SSHE | ≤ 0.25
57 | KVSA | ≤ 0.25
58 | WENA | ≤ 0.25
59 | IKVS | ≤ 0.25
60 | HMHV | ≤ 0.25
61 | VDMC | ≤ 0.25
62 | NAMW | ≤ 0.25
63 | LQTW | ≤ 0.25
64 | KPNK | ≤ 0.25
65 | EMRK | ≤ 0.25
66 | ENID | ≤ 0.25
67 | LNRD | 0.657
68 | HNWL | 0.887
69 | NKGG | ≤ 0.25
70 | PYSI | ≤ 0.25
71 | HEWL | ≤ 0.25
72 | SCVL | 1.96

Row | Variant | enrichment ratio
73 | SSKF | ≤ 0.25
74 | VDLH | ≤ 0.25
75 | HNYA | ≤ 0.25
76 | GHCS | ≤ 0.25
77 | YKHE | ≤ 0.25
78 | KSLL | ≤ 0.25
79 | DNAN | ≤ 0.25
80 | HCCH | ≤ 0.25
81 | TSFI | 1.45
82 | ISIH | 0.269
83 | SESN | 7.92
84 | VDRE | ≤ 0.25
85 | PLNS | ≤ 0.25
86 | FKYL | ≤ 0.25
87 | GVSV | ≤ 0.25
88 | DSEV | ≤ 0.25
89 | QRWS | ≤ 0.25
90 | VQTA | ≤ 0.25
91 | KYNE | ≤ 0.25
92 | MIIA | ≤ 0.25
93 | TQGF | 4.68
94 | QLQS | ≤ 0.25
95 | KDTR | ≤ 0.25
96 | KRMH | ≤ 0.25

Row | Variant | enrichment ratio
97 | VWSL | ≤ 0.25
98 | NTMR | ≤ 0.25
99 | VHMK | ≤ 0.25
100 | FKRF | ≤ 0.25
101 | TWCL | ≤ 0.25
102 | KDSN | ≤ 0.25
103 | WWIQ | ≤ 0.25
104 | AKDF | ≤ 0.25
105 | ASPI | 6.68
106 | DATS | ≤ 0.25
107 | KPNW | ≤ 0.25
108 | RMNW | ≤ 0.25
109 | HRTK | ≤ 0.25
110 | TFNN | 4.5
111 | IWER | ≤ 0.25
112 | YSAT | ≤ 0.25
113 | SKCR | ≤ 0.25
114 | SMQV | ≤ 0.25
115 | FTTT | ≤ 0.25
116 | GGIP | ≤ 0.25
117 | PNSE | ≤ 0.25
118 | NEYL | ≤ 0.25
119 | SDMT | 5.7
120 | PMRI | ≤ 0.25

Row | Variant | enrichment ratio
121 | MKVK | ≤ 0.25
122 | SCVK | 1.24
123 | SVCV | 8.55
124 | YSLC | 7.9
125 | NAEA | ≤ 0.25
126 | DFTW | ≤ 0.25
127 | PQEL | ≤ 0.25
128 | LACW | ≤ 0.25
129 | DHAD | ≤ 0.25
130 | KITF | ≤ 0.25
131 | PFCE | ≤ 0.25
132 | VQDA | ≤ 0.25
133 | FCDF | ≤ 0.25
134 | LDVV | ≤ 0.25
135 | GVDP | ≤ 0.25
136 | RNWH | ≤ 0.25
137 | VSGA | ≤ 0.25
138 | PIDY | ≤ 0.25
139 | HLLS | ≤ 0.25
140 | EGYN | ≤ 0.25
141 | KCPY | ≤ 0.25
142 | YSWF | ≤ 0.25
143 | YGPT | ≤ 0.25
144 | TWHS | ≤ 0.25

Row | Variant | enrichment ratio
145 | EWHG | ≤ 0.25
146 | MAVW | ≤ 0.25
147 | RVHP | ≤ 0.25
148 | DHEY | ≤ 0.25
149 | QVAY | ≤ 0.25
150 | VNVY | ≤ 0.25
151 | DSSV | ≤ 0.25
152 | IEYD | ≤ 0.25
153 | HDYV | ≤ 0.25
154 | SWWM | ≤ 0.25
155 | IAER | ≤ 0.25
156 | RATH | ≤ 0.25
157 | NNEF | ≤ 0.25
158 | YKTQ | ≤ 0.25
159 | DRMA | ≤ 0.25
160 | WMIC | ≤ 0.25
161 | NLCM | ≤ 0.25
162 | IVNF | ≤ 0.25
163 | RFPV | ≤ 0.25
164 | WHHY | ≤ 0.25
165 | QIYY | ≤ 0.25
166 | GQYR | ≤ 0.25
167 | GEKF | ≤ 0.25
168 | HSGT | ≤ 0.25

Row | Variant | enrichment ratio
169 | WNPR | ≤ 0.25
170 | LFGQ | ≤ 0.25
171 | GISG | 8.5
172 | DSMP | ≤ 0.25
173 | GCCT | ≤ 0.25
174 | DMTA | ≤ 0.25
175 | QSVG | ≤ 0.25
176 | KDAS | ≤ 0.25
177 | SPED | ≤ 0.25
178 | RLHA | ≤ 0.25
179 | YVPG | ≤ 0.25
180 | NQFA | ≤ 0.25
181 | SQAT | 12.5
182 | RLAW | ≤ 0.25
183 | PIQF | ≤ 0.25
184 | SVKG | ≤ 0.25
185 | YPTW | ≤ 0.25
186 | IFKE | ≤ 0.25
187 | ESHQ | ≤ 0.25
188 | RHWF | ≤ 0.25
189 | MGWE | ≤ 0.25
190 | NNSN | ≤ 0.25
191 | RLDF | ≤ 0.25
192 | HWFY | ≤ 0.25

Row | Variant | enrichment ratio
193 | WHGA | ≤ 0.25
194 | FYAC | ≤ 0.25
195 | WQLI | ≤ 0.25
196 | LQDT | ≤ 0.25
197 | HNKP | ≤ 0.25
198 | WRNM | ≤ 0.25
199 | QFGP | ≤ 0.25
200 | TGFH | 1.18
201 | VWFR | ≤ 0.25
202 | PRDA | ≤ 0.25
203 | QHRY | ≤ 0.25
204 | SRPG | ≤ 0.25
205 | LLMK | 1.04
206 | IPTM | ≤ 0.25
207 | KLNC | ≤ 0.25
208 | NICK | 14.4
209 | KCRC | ≤ 0.25
210 | GNTY | ≤ 0.25
211 | TQTD | ≤ 0.25
212 | AKRY | ≤ 0.25
213 | YTLN | 8.58
214 | RICV | ≤ 0.25
215 | FCQL | ≤ 0.25
216 | MENV | ≤ 0.25

Row | Variant | enrichment ratio
217 | NETT | ≤ 0.25
218 | FGMN | ≤ 0.25
219 | VNQG | ≤ 0.25
220 | EVCK | ≤ 0.25
221 | NICT | ≤ 0.25
222 | NAYT | ≤ 0.25
223 | YGVL | 0.495
224 | DCLI | ≤ 0.25
225 | AHHW | ≤ 0.25
226 | LCAQ | ≤ 0.25
227 | TRKM | ≤ 0.25
228 | SWTL | ≤ 0.25
229 | NGIQ | ≤ 0.25
230 | IMWD | ≤ 0.25
231 | FCRA | ≤ 0.25
232 | ESPQ | ≤ 0.25
233 | KFYP | ≤ 0.25
234 | AWDI | ≤ 0.25
235 | NFQF | ≤ 0.25
236 | QQMK | ≤ 0.25
237 | TNPE | ≤ 0.25
238 | WIQP | ≤ 0.25
239 | INTN | ≤ 0.25
240 | APLW | ≤ 0.25

Row | Variant | enrichment ratio
241 | NWFR | ≤ 0.25
242 | YVPE | ≤ 0.25
243 | YTCW | ≤ 0.25
244 | DIEI | ≤ 0.25
245 | PHTR | ≤ 0.25
246 | GEII | 8.8
247 | HGTF | ≤ 0.25
248 | YQKN | ≤ 0.25
249 | LDLG | ≤ 0.25
250 | TNRF | ≤ 0.25
251 | TRKW | ≤ 0.25
252 | SLTQ | 6.15
253 | RRSC | ≤ 0.25
254 | LSLI | 5.01
255 | YKKV | ≤ 0.25
256 | FEGV | ≤ 0.25
257 | VMIT | ≤ 0.25
258 | QEED | ≤ 0.25
259 | YLIP | ≤ 0.25
260 | WFMI | ≤ 0.25
261 | PWYP | ≤ 0.25
262 | DLQL | ≤ 0.25
263 | LYAR | ≤ 0.25
264 | NEMY | ≤ 0.25

Row | Variant | enrichment ratio
265 | STRF | ≤ 0.25
266 | VTLG | 3.9
267 | LWTY | ≤ 0.25
268 | TVER | 2.91
269 | LRTK | ≤ 0.25
270 | MRDG | ≤ 0.25
271 | REVT | ≤ 0.25
272 | NTRI | ≤ 0.25
273 | YCRD | ≤ 0.25
274 | YQRL | ≤ 0.25
275 | MLGK | ≤ 0.25
276 | ESIH | ≤ 0.25
277 | VISR | ≤ 0.25
278 | SAFD | ≤ 0.25
279 | TNVM | ≤ 0.25
280 | VKWL | ≤ 0.25
281 | SIIH | ≤ 0.25
282 | QWWT | ≤ 0.25
283 | TGHM | 4.7
284 | NPDP | ≤ 0.25
285 | FNCD | ≤ 0.25
286 | SGTN | 1.24
287 | LMDH | ≤ 0.25
288 | RRVS | ≤ 0.25

Row | Variant | enrichment ratio
289 | PQRY | ≤ 0.25
290 | TNFR | ≤ 0.25
291 | KGAN | ≤ 0.25
292 | PQFI | ≤ 0.25
293 | PLAD | ≤ 0.25
294 | VAAG | ≤ 0.25
295 | LEST | ≤ 0.25
296 | QDRM | ≤ 0.25
297 | VKKL | ≤ 0.25
298 | LDAN | ≤ 0.25
299 | QFRG | ≤ 0.25
300 | HSCE | ≤ 0.25
301 | VYPI | ≤ 0.25
302 | VPWD | ≤ 0.25
303 | MQVQ | ≤ 0.25
304 | IPIL | ≤ 0.25
305 | LYCT | ≤ 0.25
306 | PGGD | ≤ 0.25
